Measured values: the RNAGym collection of RNA variant scans (doi:10.1073/pnas.2313332121)
This sample is rich in variants without activity.

B1: TPR 5TU (parent)
chain: GGAUCUUCUCGAUCUAACAAAAAAGACAAAUCUGCCACAAAGCUUGAGAGCAUCUUCGGAUGCAGAGGCGGCAGCCUUCGGUGGCGCGAUAGCGCCAACGUUCUCAACUAUGACACGCAAAACGCGUGCUCCGUUGAAUGGAGUUUAUCAUG

Variants of: B1
Assay: polymerase ribozyme fitness, log enrichment relative to wild type (log ratio); higher = more active; in vitro selection for triplet polymerase activity
In short: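 To select mutant libraries of each subunit of a heterodimeric triplet polymerase ribozyme, built by PCR and transcribed, each was annealed with a biotinylated primer, partner subunit and triplets, then incubated frozen at −7 °C. Extended constructs were gel-excised, captured on streptavidin beads and amplified by RT-PCR, in one round carried out in triplicate. Illumina sequencing of input and output libraries kept genotypes with ≥10 input reads and ≥1 read per output. Fitness is the base-2 logarithm of genotype enrichment relative to wild-type enrichment, from inverse-variance-weighted replicate averages.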

First: A22U A52C G65A C132G G140U
Second: A23C A28U U33G A49G G71U U78A C95A C96A G143C U148G
The “polymerase ribozyme fitness (log ratio)” value of the first is higher: -3.17 for the first, at most -4.2 for the second.

A22G C76U C87G C103A A113U A120G and A22U A91C cannot be ordered by “polymerase ribozyme fitness (log ratio)” value: at most -4.2 for the first, at most -4.2 for the second.

A22G A24U C27U A40G C87G U90A and A22U C79G C87U cannot be ordered by “polymerase ribozyme fitness (log ratio)” value: at most -4.2 for the first, at most -4.2 for the second.

A22C U102G A110G and A22C G50U G67U G74U G92C C149G cannot be ordered by “polymerase ribozyme fitness (log ratio)” value: at most -4.2 for the first, at most -4.2 for the second.

A23C C85G C95U and A23C A40C G58U A97G C103G C132G cannot be ordered by “polymerase ribozyme fitness (log ratio)” value: at most -4.2 for the first, at most -4.2 for the second.

Compared with A22U A49C G70C G80U A89C G92U A107U C125U, A22U A49U is higher in “polymerase ribozyme fitness (log ratio)” value: at most -4.2 for the first, -0.913 for the second.

A23C C51G and A23C C27A C36U U44A A91U cannot be ordered by “polymerase ribozyme fitness (log ratio)” value: at most -4.2 for the first, at most -4.2 for the second.

A22U G59U C103G A110U C118U and A22G U56A C96G U101C G143A U148A cannot be ordered by “polymerase ribozyme fitness (log ratio)” value: at most -4.2 for the first, at most -4.2 for the second.

A22G A49U G58C U77C C87U U90C C95G U104A C116G and A23C A37U cannot be ordered by “polymerase ribozyme fitness (log ratio)” value: at most -4.2 for the first, at most -4.2 for the second.

A22U A24U A52U C54A G94U U145G and A22G G70A G94C C123A A142U cannot be ordered by “polymerase ribozyme fitness (log ratio)” value: at most -4.2 for the first, at most -4.2 for the second.

A22G A64C G68U A91C A121U and A22C G92C G117C U148G cannot be ordered by “polymerase ribozyme fitness (log ratio)” value: at most -4.2 for the first, at most -4.2 for the second.

A22C G25A C51U A66C C85G C93U C116A and A22U A24C U31C A47C U102G cannot be ordered by “polymerase ribozyme fitness (log ratio)” value: at most -4.2 for the first, at most -4.2 for the second.

A22U A40C C85U C93G U101G A107G and A22U G58C C93U A107C A120U G126A cannot be ordered by “polymerase ribozyme fitness (log ratio)” value: at most -4.2 for the first, at most -4.2 for the second.

A22C G46C A49C C125U and A23C A47G C96A cannot be ordered by “polymerase ribozyme fitness (log ratio)” value: at most -4.2 for the first, at most -4.2 for the second.

A22U G42C A47U A60C G81A G88C A97C U134G U144A U145C and A23C G25C cannot be ordered by “polymerase ribozyme fitness (log ratio)” value: at most -4.2 for the first, at most -4.2 for the second.

A23C C35A C36G C54A A137G U148G and A22G C85A C87G A89G G124C U139G cannot be ordered by “polymerase ribozyme fitness (log ratio)” value: at most -4.2 for the first, at most -4.2 for the second.

A23C C69G and A22G C43U U44C C54A A73U C87U U104G C131A cannot be ordered by “polymerase ribozyme fitness (log ratio)” value: at most -4.2 for the first, at most -4.2 for the second.

A23C A40C G83U U102A U145A and A22U A26G C38U U56A G88U G136A cannot be ordered by “polymerase ribozyme fitness (log ratio)” value: at most -4.2 for the first, at most -4.2 for the second.

A22U G46A C79G G80U G92A A150C and A23C A39G C54U C57U G92A U101C A120U C129G G133U U148C cannot be ordered by “polymerase ribozyme fitness (log ratio)” value: at most -4.2 for the first, at most -4.2 for the second.

A22U C35A U55C C79G C85A A91U and A22C G59C G83A A89U C108A cannot be ordered by “polymerase ribozyme fitness (log ratio)” value: at most -4.2 for the first, at most -4.2 for the second.

Compared with A22U C72G G92A A150U, A22U C54U G92U A147U is higher in “polymerase ribozyme fitness (log ratio)” value: at most -4.2 for the first, 0.944 for the second.

A23C A29U C38U C54A G84A A98U A106G A137U and A22G A91U G133C cannot be ordered by “polymerase ribozyme fitness (log ratio)” value: at most -4.2 for the first, at most -4.2 for the second.

A23C A39U U53A G86U A98G C105A and A22U C57A C85G C87U C99A C114A G140C cannot be ordered by “polymerase ribozyme fitness (log ratio)” value: at most -4.2 for the first, at most -4.2 for the second.

A22C U31C A41U U45A C54U C96U C118U G141A U144A A150U and A22G A39C A47G C85A cannot be ordered by “polymerase ribozyme fitness (log ratio)” value: at most -4.2 for the first, at most -4.2 for the second.

A23C A89G C93G U139A and A22G G67A A91U C96U A110U A137U cannot be ordered by “polymerase ribozyme fitness (log ratio)” value: at most -4.2 for the first, at most -4.2 for the second.

A22G A28G C57A U61A G65U C125A and A22U C27A A49G C63A C69G G74A C116G C131U A138C cannot be ordered by “polymerase ribozyme fitness (log ratio)” value: at most -4.2 for the first, at most -4.2 for the second.

A23C C75G C103U and A22G A39U A41C C43A G58C A60C C93U G112C A121C cannot be ordered by “polymerase ribozyme fitness (log ratio)” value: at most -4.2 for the first, at most -4.2 for the second.

First: A22U A52G C75U G83U U134C A142C
Second: A22U A24G U31A U56G C79U U90G C95U A97C A120U C125G
The “polymerase ribozyme fitness (log ratio)” value of the first is higher: -3.51 for the first, at most -4.2 for the second.

A22U C87A A89U C103G A106C and A22U A52G U53A A107G cannot be ordered by “polymerase ribozyme fitness (log ratio)” value: at most -4.2 for the first, at most -4.2 for the second.

A23C A40U C43U U45A U77G C93A and A22G C54A C87A C105G cannot be ordered by “polymerase ribozyme fitness (log ratio)” value: at most -4.2 for the first, at most -4.2 for the second.

A22U C35A U55A U56G G74A C85G and A22G U56A C85A G126A U130A cannot be ordered by “polymerase ribozyme fitness (log ratio)” value: at most -4.2 for the first, at most -4.2 for the second.

A22U C57A G80A G94U C99U C116G G143U A147U and A22U G50U C87U C108U C149U G152U cannot be ordered by “polymerase ribozyme fitness (log ratio)” value: at most -4.2 for the first, at most -4.2 for the second.

A22C U55G G67A U78A C93G C99A C149G and A22C G74C G88U C103G cannot be ordered by “polymerase ribozyme fitness (log ratio)” value: at most -4.2 for the first, at most -4.2 for the second.

A23C A37C A39C A66U A91C C99U and A23C G42A C96G U127A cannot be ordered by “polymerase ribozyme fitness (log ratio)” value: at most -4.2 for the first, at most -4.2 for the second.

A23C A28U C63U A91U A150G and A22G U45G G50A C54U G94C C131G A138U cannot be ordered by “polymerase ribozyme fitness (log ratio)” value: at most -4.2 for the first, at most -4.2 for the second.

A22G G74C G94C C125U and A22G C87G cannot be ordered by “polymerase ribozyme fitness (log ratio)” value: at most -4.2 for the first, at most -4.2 for the second.

Compared with A22U A41C G70C U82G, A22U G86U is higher in “polymerase ribozyme fitness (log ratio)” value: at most -4.2 for the first, -1.05 for the second.

Going from A22U A37U C95U U146A to A22G G46C C87A U101G G141U, the “polymerase ribozyme fitness (log ratio)” value falls from -1.67 to at most -4.2.

A22C C87U C116G C125U C149U and A22G C69G C95A C96G U139A A142C cannot be ordered by “polymerase ribozyme fitness (log ratio)” value: at most -4.2 for the first, at most -4.2 for the second.

Going from A23C C87U G112U to A23C G25C C27G U53A C54G A66G G80A A91G G92A C99U, the “polymerase ribozyme fitness (log ratio)” value falls from -3.99 to at most -4.2.

First: A22U C96A
Second: A22U C96U
The “polymerase ribozyme fitness (log ratio)” value of the first is lower: -0.026 for the first, 0.237 for the second.

Compared with A22U G50U U55A G81C C93U A122U A150C, A22C C85G U109A is higher in “polymerase ribozyme fitness (log ratio)” value: at most -4.2 for the first, -3.43 for the second.
